# The full ranking holds about 33,000 sequences; the median of “E-score (-0.5 to 0.5)” is about -0.043, and the highest 2% start at about 0.37. This is one part of the list.
# Biological target: T1, Upc2 (UniProt Q12151)
# T1 sequence: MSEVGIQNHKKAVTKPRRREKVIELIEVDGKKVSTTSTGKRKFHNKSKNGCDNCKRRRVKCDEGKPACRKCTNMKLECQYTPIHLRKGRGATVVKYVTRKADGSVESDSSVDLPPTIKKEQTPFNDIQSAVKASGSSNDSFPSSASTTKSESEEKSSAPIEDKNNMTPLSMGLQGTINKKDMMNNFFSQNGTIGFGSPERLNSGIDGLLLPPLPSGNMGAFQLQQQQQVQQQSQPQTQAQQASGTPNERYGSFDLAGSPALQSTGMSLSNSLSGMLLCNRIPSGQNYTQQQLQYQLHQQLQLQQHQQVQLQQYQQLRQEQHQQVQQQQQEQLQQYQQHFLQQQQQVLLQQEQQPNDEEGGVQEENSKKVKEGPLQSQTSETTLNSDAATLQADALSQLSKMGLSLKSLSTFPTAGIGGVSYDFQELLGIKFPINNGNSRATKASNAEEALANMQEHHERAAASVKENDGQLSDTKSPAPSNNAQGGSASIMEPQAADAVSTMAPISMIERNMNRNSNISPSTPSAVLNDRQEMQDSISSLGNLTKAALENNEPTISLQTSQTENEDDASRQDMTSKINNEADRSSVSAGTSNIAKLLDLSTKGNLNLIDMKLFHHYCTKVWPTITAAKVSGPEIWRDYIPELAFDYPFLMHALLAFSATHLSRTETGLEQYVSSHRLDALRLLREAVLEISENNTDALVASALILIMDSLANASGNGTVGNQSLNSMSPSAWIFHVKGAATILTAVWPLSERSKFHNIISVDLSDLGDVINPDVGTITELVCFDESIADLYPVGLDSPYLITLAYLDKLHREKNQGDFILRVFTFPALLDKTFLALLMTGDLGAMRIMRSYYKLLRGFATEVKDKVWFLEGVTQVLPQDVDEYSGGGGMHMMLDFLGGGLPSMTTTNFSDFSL
# Assay: PBM E-score (8-mer binding enrichment) (E-score (-0.5 to 0.5)); higher = stronger / more preferred TF binding; most listed sequences are background and not binding sites
# Conditions: protein concentration: 200 nM; construct: GST-full length
# Procedure: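 Universal 'all 10-mer' protein binding microarrays (Agilent AMADID 015681) probed with GST-tagged S. cerevisiae TFs (full-length or DBD) made by in vitro transcription/translation (PURExpress), about 100-200 nM. Bound TF was detected with fluorescent anti-GST. Each ungapped 8-mer (which stands for itself and its reverse complement) is scored by the PBM enrichment score (E-score), a modified Wilcoxon-Mann-Whitney statistic from -0.5 to +0.5, computed with the Universal PBM Analysis Suite. Scale: above 0.35 generally sequence-specific binding.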
row,Sequence,PBM E-score
1,GACGGCAC,-0.0495
2,ATATAGAG,-0.282
3,ACCTCCTA,-0.284
4,CAGAATCG,0.195
5,AACTATAT,0.0597
6,AGTAGCTG,-0.217
7,CGTGCTAG,0.0592
8,GAGGCGTA,0.193
9,CGTGTCAA,-0.29
10,CAGTCCCG,-0.0231
11,GCGATTAA,0.103
12,TCAGACCA,-0.131
13,GAACTAAA,0.0965
14,AGCTTGAA,-0.00977
15,ATCATCTG,-0.129
16,AAGATTTC,-0.00074
17,ACCATTTG,-0.00656
18,CCTTTCAG,-0.0663
19,GGAGCGCA,-0.173
20,CAAGTTAC,0.0669
21,CCTTATGA,-0.0741
22,CGAGGAAG,0.107
23,AGTGCGTA,0.242
24,GAAGGATC,-0.0638
25,ACCACGTA,0.198

row,Sequence,PBM E-score
1,CGTGAGCA,-0.033
2,CAATACCG,-0.0438
3,ACTTCTCA,-0.0354
4,GACAGTGC,0.038
5,CGCTTCCA,-0.0947
6,GTTTGGAA,0.238
7,ATTTTACC,0.00835
8,GGACAGAC,-0.209
9,CGCGACAC,0.013
10,ATAGGCGG,-0.0532
11,AAATGCGG,0.0321
12,CACCACCA,-0.165
13,CCTTAACG,0.38
14,ACATGCGT,-0.0249
15,ACAATGTG,-0.00829
16,GTTTGAAA,0.182
17,CGCTTACC,0.301
18,GCCACATA,-0.153
19,CTTTGCGC,0.0115
20,CATTTCGC,0.16
21,ATCAAGCG,-0.0631
22,AAAATGAA,-0.0379
23,CGACGGAC,0.101
24,GATGTGTA,0.0809
25,CCATTGGA,-0.223

row,Sequence,PBM E-score
1,GTTACTCA,0.11
2,CTTGCGCA,-0.0291
3,CCGACGGC,0.0853
4,CGTGATGC,-0.18
5,CGGGATGC,-0.0618
6,GCGCATTA,0.0866
7,AGATCTTA,0.0589
8,CTACACAC,-0.0342
9,AATAAGCG,0.115
10,CCCGTAGC,0.0891
11,CAACGTTA,0.0939
12,GACGGGGC,-0.113
13,AATTCACA,-0.0315
14,GTATTCCA,0.0694
15,CGAAGTGC,0.161
16,CCTAGGCG,-0.162
17,TTACTAAA,0.196
18,GGGGGCCA,-0.166
19,ATTACTAA,0.00226
20,ACCCATTC,-0.105
21,ATACTATG,-0.0405
22,ACATGCTG,0.0413
23,ATAATGGA,-0.128
24,ACACAACC,-0.0135
25,GTCAGAAA,-0.0771

row,Sequence,PBM E-score
1,CATGATTC,-0.195
2,AATAAAAC,0.0783
3,GGCAAGTA,-0.213
4,CGTGCAGC,-0.14
5,AACATATA,0.0905
6,AGGGCTGG,-0.235
7,CTAAGTTC,-0.0418
8,GACCCGTC,0.0413
9,CGGGGGGA,-0.202
10,CATTTGGA,-0.209
11,AGAGTTCA,-0.208
12,CACCGACC,-0.0762
13,CAAGCAAG,-0.208
14,AATGTTAA,-0.175
15,AGACCGCA,-0.191
16,ACTGCGAT,-0.199
17,GGAGATCC,-0.24
18,AATGTCTA,-0.127
19,TTGCAAAA,0.0548
20,ATTACCGC,0.0457
21,GTCACTAA,0.0743
22,AGGCGCGA,0.0335
23,GCTTCCCC,-0.156
24,ATCAACCC,0.112
25,TCAAGGGA,-0.267

row,Sequence,PBM E-score
1,AGCTCCAA,-0.184
2,CCTGGCAA,-0.125
3,GGCCTCGA,-0.233
4,CAAAAAGA,-0.0467
5,CGTTAGGC,0.0828
6,ACCCAGAG,-0.0786
7,CTACGACA,0.311
8,CCCGCCAG,0.0836
9,CTCGGAGC,0.0127
10,AACCTACT,-0.113
11,CATTTCCG,-0.022
12,AAGGGTGC,-0.238
13,TAGTCTCA,0.0124
14,ACCCCACA,-0.121
15,ACCGCCGT,0.213
16,GCGTAGCA,0.109
17,TAACCCTA,-0.158
18,CTAAGTAG,-0.183
19,AGTACCGG,-0.228
20,AGAATACC,-0.0185
21,GACCGGGC,-0.0541
22,CGAGACTC,0.163
23,GAGGTCGC,-0.042
24,TAGTTTAA,0.18
25,CATGCATG,-0.288

row,Sequence,PBM E-score
1,AGTGGCCA,-0.135
2,AACTCATT,-0.165
3,CTGTAGCC,-0.116
4,AAGCTTCC,-0.176
5,GGGCAGGA,-0.295
6,ATTATGTC,0.0356
7,TGTAGCAA,-0.142
8,GCTCACCA,-0.271
9,AATTACCA,-0.098
10,CGCTTACA,0.178
11,GCCCATAA,-0.0969
12,GAATCGAC,0.00593
13,CTAACCTA,-0.0682
14,GAGACTGA,-0.216
15,GGGACGTA,0.147
16,AAAAGTGT,-0.0765
17,GCTCCCCA,-0.0976
18,CTTGGGCA,-0.25
19,ACCCTGCA,-0.0278
20,CAACATGG,-0.119
21,ATGGCACG,-0.226
22,AACGATTA,0.364
23,ATCGGCGA,-0.0837
24,ATACGTAT,0.372
25,ATAGATTC,-0.12

row,Sequence,PBM E-score
1,ACTGACAT,-0.168
2,CCTCTAAC,0.0275
3,GGCTAAAA,-0.236
4,AGACGAGA,0.184
5,ATAGATCC,-0.0535
6,ATTTTACG,0.394
7,CGAATGAG,0.0933
8,CAGTAATC,-0.171
9,AGACAAAG,0.0658
10,AACTTTAT,-0.0521
11,TAATAACA,0.0903
12,GCCATGTA,-0.0374
13,ACGATCCA,0.306
14,AACGATAC,0.413
15,GCATCGCA,-0.0567
16,AATTAGAT,0.0833
17,GCCGAAAC,-0.037
18,GATAGTCC,-0.129
19,CCACTCCG,-0.08
20,GTATTGGA,-0.00883
21,GATTGAGA,-0.0357
22,AAGGTTGG,-0.0326

# From the supplement of paper PMC3334620
